Substitutions are numbered along the chain they refer to. Where two headings read alike, the source gives them in different places.

For assay [1], the target named is T1, human BCMA on cells (human, UniProt Q02223 1-184).
T1 construct: whole, on cells; also called H929 cells; U266 cells
T1 sequence (looked up): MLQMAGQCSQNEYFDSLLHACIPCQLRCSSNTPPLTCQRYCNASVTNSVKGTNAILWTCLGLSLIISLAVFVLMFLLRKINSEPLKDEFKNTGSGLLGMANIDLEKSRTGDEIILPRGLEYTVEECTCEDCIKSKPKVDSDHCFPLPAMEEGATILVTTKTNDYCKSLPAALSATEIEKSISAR
Kind of assay: FACS, U266 cells. For orientation: Flow cytometry measures light scatter and fluorescence of single cells or particles in a stream.

For assay [2], the target named is T2, human BCMA-His protein (human, UniProt Q02223 1-54).
T2 construct: Bought protein; also called human BCMA protein; huBCMA-His; not shown: His tag
T2 sequence (looked up): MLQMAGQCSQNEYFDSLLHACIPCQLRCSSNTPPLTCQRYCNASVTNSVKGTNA
Kind of assay: SPR (Biacore), antibody captured on Protein A chip, BCMA-His in solution.

Assay [3] deals with T1, human BCMA on cells. The experiment in a line: FACS, H929 cells.
The target of assay [4] is T1, human BCMA on cells. The experiment in a line: FACS, U266 cells. The source holds these as a separate data set.
The target of assay [5] is T2, human BCMA-His protein. Kind of assay: SPR (Biacore), antibody captured on Protein A chip, BCMA-His in solution. The source holds these as a separate data set. (Surface plasmon resonance follows binding to a sensor surface in real time, without labels.)
In assay [6] the target is T1, human BCMA on cells. The experiment in a line: FACS, H929 cells. This is another data set of the same source.

B1: BCMA-Lab01-VHH1 (Fc fusion)
heavy: EVQLVESGGGLVQPGGSLRLSCSASGFTLDYYMMGWFRQAPGKEREGVSSISPADGSTYYADSVKGRFTISRDNSKNTLYLQMNSLRAEDTAVYYCAAGNEATISWGFGPWEYDYWGQGTMVTVSS[human IgG1 Fc with C220S (EU numbers) skipped]
notes: Humanized VHH-Fc; no linker stated
As for B1, in the assay with human BCMA on cells [1], the concentration for a half-maximal effect (EC50) is 5.43 nM and the “Maximum mean fluorescence intensity” value stood at 1030 MFI. In the assay with human BCMA-His protein [2], this molecule returned a dissociation constant (Kd) of 7.07 nM, a koff of 0.00841 s⁻¹ and a kon of 1.19e+06 M⁻¹ s⁻¹. Also, in the assay with human BCMA on cells [3], a half-maximal response (EC50) required 4.08 nM and the “Maximum mean fluorescence intensity” value is 6350 MFI.

B2: BCMA-Lab01-VHH2 (Fc fusion)
heavy: B1 heavy with N74S
notes: as for B1
Regarding B2, in the assay with human BCMA on cells [1], the EC50 amounted to 6.75 nM and the “Maximum mean fluorescence intensity” value was determined as 1300 MFI. In the assay with human BCMA-His protein [2], this molecule yielded a dissociation constant (Kd) of 3.48 nM, a koff of 0.00361 s⁻¹ and an association rate constant (kon) of 1.04e+06 M⁻¹ s⁻¹. Moreover, in the assay with human BCMA on cells [3], the EC50 was 4.22 nM and the “Maximum mean fluorescence intensity” value was determined as 6620 MFI.

B3: BCMA-Lab01-VHH3 (Fc fusion)
heavy: B1 heavy with M34I, N74S, L79V
notes: as for B1
On to B3, for which the concentration for a half-maximal effect (EC50) with human BCMA on cells [1] worked out at 3.48 nM. In the assay with human BCMA-His protein [2], the dissociation constant (Kd) was determined as 1.2 nM, the off-rate constant (koff) is 0.00138 s⁻¹ and the association rate constant (kon) worked out at 1.15e+06 M⁻¹ s⁻¹. This molecule yielded an EC50 with human BCMA on cells [3] of 2.85 nM.

B4: BCMA-Lab17 (Fc fusion)
heavy: QVQLVESGGGLVQPGGSLRLSCTGSGFTLDYYMIGWFRQAPGKEREGLSCISSGDGSTYYADSVKGRFTISRDNAKNTVYLQMNSLKPEDTAVYYCAAGNEATITWGFGPWEYDYWGQGTQVTVSS[human IgG1 Fc with C220S (EU numbers) skipped]
Turning to B4, in the assay with human BCMA on cells [4], a half-maximal response (EC50) required 0.98 nM and the “Maximum mean fluorescence intensity” value was determined as 1010 MFI. For the same molecule, in the assay with human BCMA-His protein [5], the Kd turned out to be 4.25 nM, the koff came out at 0.0176 s⁻¹ and the on-rate constant (kon) came to 4.15e+06 M⁻¹ s⁻¹. In the assay with human BCMA on cells [6], the EC50 is 1.74 nM and the “Maximum mean fluorescence intensity” value stood at 3310 MFI.

B5: BCMA-Lab01-VHH6 (Fc fusion)
heavy: B1 heavy with M34I, V48L, N74S, L79V
notes: as for B1
With B5, in the assay with human BCMA on cells [1], the EC50 turned out to be 3.25 nM and the “Maximum mean fluorescence intensity” value is 1750 MFI. In the assay with human BCMA-His protein [2], this molecule returned a dissociation constant Kd of 0.613 nM, a koff of 0.000802 s⁻¹ and a kon of 1.31e+06 M⁻¹ s⁻¹. Besides, in the assay with human BCMA on cells [3], the concentration giving a half-maximal response (EC50) amounted to 3.5 nM and the “Maximum mean fluorescence intensity” value was determined as 10100 MFI.

B6: BCMA-Lab01-VHH4 (Fc fusion)
heavy: B1 heavy with M34I, N74S, S75A, L79V
notes: as for B1
With B6, in the assay with human BCMA on cells [1], the EC50 is 3.99 nM and the “Maximum mean fluorescence intensity” value was 1610 MFI. In addition, in the assay with human BCMA-His protein [2], the affinity, expressed as Kd, was 1.2 nM; the koff is 0.00137 s⁻¹; the association rate constant (kon) was found to be 1.14e+06 M⁻¹ s⁻¹. For the same molecule, in the assay with human BCMA on cells [3], the midpoint of the response, the EC50, lay at 2.88 nM and the “Maximum mean fluorescence intensity” value amounted to 8230 MFI.

B7: BCMA-Lab01-VHH5 (Fc fusion)
heavy: B1 heavy with M34I, N74S, L79V, V93L, M121Q
notes: as for B1
Turning to B7, in the assay with human BCMA on cells [1], the EC50 was determined as 4.01 nM and the “Maximum mean fluorescence intensity” value was found to be 1590 MFI. In the assay with human BCMA-His protein [2], this molecule showed a Kd of 1.17 nM, a koff of 0.00141 s⁻¹ and a kon of 1.2e+06 M⁻¹ s⁻¹. Also, in the assay with human BCMA on cells [3], the midpoint of the response, the EC50, lay at 3.82 nM and the “Maximum mean fluorescence intensity” value amounted to 9090 MFI.

B8: BCMA-Lab01-VHH7 (Fc fusion)
heavy: B1 heavy with E1Q, M34I, N74S, L79V
notes: as for B1
For the molecule B8, in the assay with human BCMA on cells [1], the EC50 was determined as 3.71 nM. In the assay with human BCMA-His protein [2], the Kd is 1.32 nM, the koff was determined as 0.00147 s⁻¹ and the on-rate (kon) amounted to 1.11e+06 M⁻¹ s⁻¹. The same molecule returned a half-maximal effective concentration (EC50) with human BCMA on cells [3] of 3.06 nM.

B9: BCMA-Lab15 (Fc fusion)
heavy: B4 heavy with V2L, T23A, S53P, G54A, N74S, V93L, A102G, T103G, T105S, W111Y
With B9, in the assay with human BCMA on cells [4], the midpoint of the response, the EC50, lay at 2.03 nM and the “Maximum mean fluorescence intensity” value was 1340 MFI. Further, in the assay with human BCMA-His protein [5], the dissociation constant Kd is 0.887 nM, the koff amounted to 0.00219 s⁻¹ and the association rate constant (kon) was found to be 2.47e+06 M⁻¹ s⁻¹. For the same molecule, in the assay with human BCMA on cells [6], it took 4.12 nM to reach a half-maximal effect (EC50) and the “Maximum mean fluorescence intensity” value was found to be 4650 MFI.

B10: BCMA-Lab02-VHH3 (Fc fusion)
heavy: EVQLVESGGGLVQPGGSLRLSCAASESISSIHIMAWYRQAPGKQRELVAGIRNDGSTYYVDSVKGRFTISRDNAKNSLYLQMNSLRAEDTAVYYCNADQGFGSYSEWERRSRWGQGTTVTVSS[human IgG1 Fc with C220S (EU numbers) skipped]
notes: as for B1
As to B10, in the assay with human BCMA on cells [1], the 50% effective concentration (EC50) is 3.02 nM and the “Maximum mean fluorescence intensity” value was found to be 1750 MFI. Further, in the assay with human BCMA on cells [3], the half-maximal effective concentration (EC50) was 2.27 nM and the “Maximum mean fluorescence intensity” value stood at 9830 MFI.

B11: BCMA-Lab02-VHH2 (Fc fusion)
heavy: B10 heavy with G50N
notes: as for B1
As to B11, in the assay with human BCMA on cells [3], the binding result is recorded as “no binding”.

B12: BCMA-Lab02-VHH1 (Fc fusion)
heavy: B10 heavy with A35S, G50N
notes: as for B1
In the case of B12, the binding result with human BCMA on cells [3] is given as “no binding”.

B13: BCMA-Lab02-VHH8 (Fc fusion)
heavy: B10 heavy with Q39R, Y58V, T118E
notes: as for B1
B13 showed a concentration for a half-maximal effect (EC50) with human BCMA on cells [3] of 1.49 nM.

B14: BCMA-Lab02-VHH4 (Fc fusion)
heavy: B10 heavy with Y58V
notes: as for B1
On to B14, for which, in the assay with human BCMA on cells [1], the 50% effective concentration (EC50) worked out at 1.18 nM and the “Maximum mean fluorescence intensity” value worked out at 1760 MFI. Further, in the assay with human BCMA-His protein [2], binding was characterised by a dissociation constant (Kd) of 0.146 nM, the koff was found to be 0.000137 s⁻¹ and the on-rate constant (kon) is 937000 M⁻¹ s⁻¹. Further, in the assay with human BCMA on cells [3], the half-maximal effective concentration (EC50) came out at 1.45 nM and the “Maximum mean fluorescence intensity” value was determined as 10100 MFI.

B15: BCMA-Lab02-VHH5 (Fc fusion)
heavy: B10 heavy with Q39R, Y58V
notes: as for B1
As for B15, in the assay with human BCMA-His protein [2], the dissociation constant (Kd) stood at 0.132 nM, the koff was 0.000103 s⁻¹ and the kon came to 784000 M⁻¹ s⁻¹. In the assay with human BCMA on cells [3], the half-maximal effective concentration (EC50) is 1.33 nM.

B16: BCMA-Lab02-VHH7 (Fc fusion)
heavy: B10 heavy with Y58V, L78V
notes: as for B1
On to B16, for which, in the assay with human BCMA on cells [1], the midpoint of the response, the EC50, lay at 0.74 nM and the “Maximum mean fluorescence intensity” value was 1850 MFI. In the assay with human BCMA-His protein [2], this molecule yielded a dissociation constant Kd of 0.0882 nM, a koff of 7.1e-05 s⁻¹ and an on-rate constant (kon) of 805000 M⁻¹ s⁻¹. In the assay with human BCMA on cells [3], the concentration giving a half-maximal response (EC50) stood at 0.39 nM and the “Maximum mean fluorescence intensity” value stood at 9840 MFI.

B17: BCMA-Lab02-VHH6 (Fc fusion)
heavy: B10 heavy with Y58V, V60A
notes: as for B1
B17: in the assay with human BCMA on cells [1], it took 1.86 nM to reach a half-maximal effect (EC50) and the “Maximum mean fluorescence intensity” value was determined as 1830 MFI. In the assay with human BCMA on cells [3], the 50% effective concentration (EC50) amounted to 1.54 nM and the “Maximum mean fluorescence intensity” value was 10100 MFI.

B18: BCMA-Lab11 (Fc fusion)
heavy: QVQLVESGGGLVQPGGSLRLSCAASGSIFSIYAMGWYRQAPGKQRELVAAITSGTNTYYRDSVKGRFTISRDNAKNTVYLQMNSLKPEDTAVYSCNVAPWGDYDGAADFVSWGQGTQVTVSS[human IgG1 Fc with C220S (EU numbers) skipped]
On to B18, for which, in the assay with human BCMA on cells [4], the EC50 came out at 2.03 nM and the “Maximum mean fluorescence intensity” value was 1360 MFI. In the assay with human BCMA-His protein [5], this molecule had a Kd of 0.217 nM, a dissociation rate constant (koff) of 0.00126 s⁻¹ and an on-rate constant (kon) of 5.83e+06 M⁻¹ s⁻¹. In the assay with human BCMA on cells [6], a half-maximal response (EC50) required 4.03 nM and the “Maximum mean fluorescence intensity” value was determined as 5100 MFI.

One may read the EC50 as the concentration that produces a half-maximal response. A word on the Kd: it is the constant that tells how readily two partners part at equilibrium. A low value points to higher affinity. For orientation: koff means a measure of how fast the partners let go of each other. Lower therefore signals slow dissociation. What is called kon is the second-order rate constant of association.

These data come from patent US20250026844A1 (SHANDONG SIMCERE BIOPHARMACEUTICAL, published 2025).
